Test results reported in patent US10640563B2, “Anti-B7-H3 antibodies and antibody drug conjugates” (AbbVie Inc., priority 2016, dated 2020).

B1: huAb3v2.5-ZZ (conjugate)
heavy: EVQLVQSGAEVKKPGSSVKVSCKASGYTFSSYWMHWVRQAPGQGLEWIGLIHPESGSTNYNEMFKNRATLTVDRSTSTAYMELSSLRSEDTAVYYCAGGGRLYFDYWGQGTTVTVSSASTKGPSVFPLAPSSKSTSGGTAALGCLVKDYFPEPVTVSWNSGALTSGVHTFPAVLQSSGLYSLSSVVTVPSSSLGTQTYICNVNHKPSNTKVDKKV[letters of human IgG1 Fc with changes omitted]
light: DIVMTQSPLSLPVTPGEPASISCRSSQSLVHSNRDTYLRWYLQKPGQSPQLLIYKVSNRFSGVPDRFSGSGSGTDFTLKISRVEAEDVGVYYCSQSTHVPYTFGGGTKVEIKRTVAAPSVFIFPPSDEQLKSGTASVVCLLNNFYPREAKVQWKVDNALQSGNSQESVTEQDSKDSTYSLSSTLTLSKADYEKHKVYACEVTHQGLSSPVTKSFNRGEC
B2: huAb3v2.5-ZT (conjugate)
heavy: EVQLVQSGAEVKKPGSSVKVSCKASGYTFSSYWMHWVRQAPGQGLEWIGLIHPESGSTNYNEMFKNRATLTVDRSTSTAYMELSSLRSEDTAVYYCAGGGRLYFDYWGQGTTVTVSSASTKGPSVFPLAPSSKSTSGGTAALGCLVKDYFPEPVTVSWNSGALTSGVHTFPAVLQSSGLYSLSSVVTVPSSSLGTQTYICNVNHKPSNTKVDKKV[letters of human IgG1 Fc with changes omitted]
light: B1 light
B3: huAb3v2.5-SR (conjugate)
heavy: EVQLVQSGAEVKKPGSSVKVSCKASGYTFSSYWMHWVRQAPGQGLEWIGLIHPESGSTNYNEMFKNRATLTVDRSTSTAYMELSSLRSEDTAVYYCAGGGRLYFDYWGQGTTVTVSSASTKGPSVFPLAPSSKSTSGGTAALGCLVKDYFPEPVTVSWNSGALTSGVHTFPAVLQSSGLYSLSSVVTVPSSSLGTQTYICNVNHKPSNTKVDKKV[letters of human IgG1 Fc with changes omitted]
light: B1 light
B4: huAb3v2.5-YG (conjugate)
heavy: EVQLVQSGAEVKKPGSSVKVSCKASGYTFSSYWMHWVRQAPGQGLEWIGLIHPESGSTNYNEMFKNRATLTVDRSTSTAYMELSSLRSEDTAVYYCAGGGRLYFDYWGQGTTVTVSSASTKGPSVFPLAPSSKSTSGGTAALGCLVKDYFPEPVTVSWNSGALTSGVHTFPAVLQSSGLYSLSSVVTVPSSSLGTQTYICNVNHKPSNTKVDKKV[letters of human IgG1 Fc with changes omitted]
light: B1 light
B5: huAb13v1-WD (conjugate)
heavy: EVQLQESGPGLVKPSETLSLTCAVTGYSITSGYSWHWIRQFPGNGLEWMGYIHSSGSTNYNPSLKSRISISRDTSKNQFFLKLSSVTAADTAVYYCAGYDDYFEYWGQGTTVTVSSASTKGPSVFPLAPSSKSTSGGTAALGCLVKDYFPEPVTVSWNSGALTSGVHTFPAVLQSSGLYSLSSVVTVPSSSLGTQTYICNVNHKPSNTKVDKKV[letters of human IgG1 Fc with changes omitted]
light: DIQMTQSPSSLSASVGDRVTITCKASQNVGFNVAWYQQKPGKSPKALIYSASYRYSGVPSRFSGSGSGTDFTLTISSLQPEDFAEYFCQQYNWYPFTFGQGTKLEIKRTVAAPSVFIFPPSDEQLKSGTASVVCLLNNFYPREAKVQWKVDNALQSGNSQESVTEQDSKDSTYSLSSTLTLSKADYEKHKVYACEVTHQGLSSPVTKSFNRGEC
B6: huAb13v1-KZ (conjugate)
heavy: EVQLQESGPGLVKPSETLSLTCAVTGYSITSGYSWHWIRQFPGNGLEWMGYIHSSGSTNYNPSLKSRISISRDTSKNQFFLKLSSVTAADTAVYYCAGYDDYFEYWGQGTTVTVSSASTKGPSVFPLAPSSKSTSGGTAALGCLVKDYFPEPVTVSWNSGALTSGVHTFPAVLQSSGLYSLSSVVTVPSSSLGTQTYICNVNHKPSNTKVDKKV[letters of human IgG1 Fc with changes omitted]
light: B5 light
B7: huAb13v1-SR (conjugate)
heavy: EVQLQESGPGLVKPSETLSLTCAVTGYSITSGYSWHWIRQFPGNGLEWMGYIHSSGSTNYNPSLKSRISISRDTSKNQFFLKLSSVTAADTAVYYCAGYDDYFEYWGQGTTVTVSSASTKGPSVFPLAPSSKSTSGGTAALGCLVKDYFPEPVTVSWNSGALTSGVHTFPAVLQSSGLYSLSSVVTVPSSSLGTQTYICNVNHKPSNTKVDKKV[letters of human IgG1 Fc with changes omitted]
light: B5 light
B8: huAb13v1-ZZ (conjugate)
heavy: EVQLQESGPGLVKPSETLSLTCAVTGYSITSGYSWHWIRQFPGNGLEWMGYIHSSGSTNYNPSLKSRISISRDTSKNQFFLKLSSVTAADTAVYYCAGYDDYFEYWGQGTTVTVSSASTKGPSVFPLAPSSKSTSGGTAALGCLVKDYFPEPVTVSWNSGALTSGVHTFPAVLQSSGLYSLSSVVTVPSSSLGTQTYICNVNHKPSNTKVDKKV[letters of human IgG1 Fc with changes omitted]
light: B5 light
B9: huAb13v1-YG (conjugate)
heavy: EVQLQESGPGLVKPSETLSLTCAVTGYSITSGYSWHWIRQFPGNGLEWMGYIHSSGSTNYNPSLKSRISISRDTSKNQFFLKLSSVTAADTAVYYCAGYDDYFEYWGQGTTVTVSSASTKGPSVFPLAPSSKSTSGGTAALGCLVKDYFPEPVTVSWNSGALTSGVHTFPAVLQSSGLYSLSSVVTVPSSSLGTQTYICNVNHKPSNTKVDKKV[letters of human IgG1 Fc with changes omitted]
light: B5 light
B10: huAb13v1-SE (conjugate)
heavy: EVQLQESGPGLVKPSETLSLTCAVTGYSITSGYSWHWIRQFPGNGLEWMGYIHSSGSTNYNPSLKSRISISRDTSKNQFFLKLSSVTAADTAVYYCAGYDDYFEYWGQGTTVTVSSASTKGPSVFPLAPSSKSTSGGTAALGCLVKDYFPEPVTVSWNSGALTSGVHTFPAVLQSSGLYSLSSVVTVPSSSLGTQTYICNVNHKPSNTKVDKKV[letters of human IgG1 Fc with changes omitted]
light: B5 light
B11: huAb13v1-LB (conjugate)
heavy: EVQLQESGPGLVKPSETLSLTCAVTGYSITSGYSWHWIRQFPGNGLEWMGYIHSSGSTNYNPSLKSRISISRDTSKNQFFLKLSSVTAADTAVYYCAGYDDYFEYWGQGTTVTVSSASTKGPSVFPLAPSSKSTSGGTAALGCLVKDYFPEPVTVSWNSGALTSGVHTFPAVLQSSGLYSLSSVVTVPSSSLGTQTYICNVNHKPSNTKVDKKV[letters of human IgG1 Fc with changes omitted]
light: B5 light
B12: huAb13v1-ZT (conjugate)
heavy: EVQLQESGPGLVKPSETLSLTCAVTGYSITSGYSWHWIRQFPGNGLEWMGYIHSSGSTNYNPSLKSRISISRDTSKNQFFLKLSSVTAADTAVYYCAGYDDYFEYWGQGTTVTVSSASTKGPSVFPLAPSSKSTSGGTAALGCLVKDYFPEPVTVSWNSGALTSGVHTFPAVLQSSGLYSLSSVVTVPSSSLGTQTYICNVNHKPSNTKVDKKV[letters of human IgG1 Fc with changes omitted]
light: B5 light

Assay: Aggregation of conjugates by SEC
Format: physicochemical
Details: ADC as conjugated (Method A, E or G)

Going from B1 to B2, the “% agg by SEC” value rises from 19.4% to 70.1%.

Compared with B3, B4 is lower in “% agg by SEC” value: 48.5% for the first, 8.6% for the second.

First: B5
Second: B6
The “% agg by SEC” value of the first is lower: 5.4% for the first, 16.8% for the second.

Going from B7 to B8, the “% agg by SEC” value falls from 49.5% to 20.3%.

Going from B9 to B10, the “% agg by SEC” value rises from 2.1% to 4%.

In the case of B11, the “% agg by SEC” value is reported as 21.9%.

Assay: DAR of ADC by LC-MS
Details: ADC as conjugated (Method A, E or G)
Protocol: The DAR and percentage aggregation of ADCs synthesized were determined by LC-MS and size exclusion chromatography (SEC), respectively.
LC-MS analysis was performed using an Agilent 1100 HPLC system interfaced to an Agilent LC/MSD TOF 6220 ESI mass spectrometer. The ADC was reduced with 5 mM (final concentration) Bond-Breaker® TCEP solution (Thermo Scientific, Rockford, Ill.), loaded onto a Protein Microtrap (Michrom Bioresorces, Auburn, Calif.) desalting cartridge, and eluted with a gradient of 10% B to 75% B in 0.2 minutes at ambient temperature. Mobile phase A was H2O with 0.1% formic acid (FA), mobile phase B was acetonitrile with 0.1% FA, and the flow rate was 0.2 mL/min. Electrospray-ionization time-of-flight mass spectra of the co-eluting light and heavy chains were acquired using Agilent MassHunter™ acquisition software. The extracted intensity vs. m/z spectrum was deconvoluted using the Maximum Entropy feature of MassHunter software to determine the mass of each reduced antibody fragment. DAR was calculated from the deconvoluted spectrum by summing intensities of the naked and modified peaks for the light chain and heavy chain, normalized by multiplying intensity by the number of drugs attached. The summed, normalized intensities were divided by the sum of the intensities, and the summing results for two light chains and two heavy chains produced a final average DAR value for the full ADC.

First: B1
Second: B2
The “DAR by MS” value of the first is lower: 1.2 for the first, 1.6 for the second.

First: B3
Second: B4
The “DAR by MS” value of the first is lower: 1.8 for the first, 4 for the second.

First: B5
Second: B6
The “DAR by MS” value of the first is higher: 3 for the first, 2.8 for the second.

Going from B7 to B8, the “DAR by MS” value falls from 2.6 to 1.4.

Going from B12 to B9, the “DAR by MS” value rises from 2.4 to 3.3.

Compared with B10, B11 is lower in “DAR by MS” value: 3.7 for the first, 2.2 for the second.
